# Measurements as given in the supplement of paper PMC11417369.
# ± gives the standard deviation of the averaged measurements. The list shows a part of the results.
# Tested on: PfAP2-EXP AP2 domain (GST-tagged)
# Test: gcPBM binding intensity (ln(normalized median fluorescence intensity)); higher = stronger DNA binding
# In short: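 GST-tagged P. falciparum DNA-binding domains produced in E. coli were incubated for 1 h on an Agilent 4 × 180k array of primer-extended double-stranded 36-bp intergenic genomic probes with negative controls. Binding intensity is the highest Masliner-normalised natural-log median intensity across replicate spots of either probe orientation, with bound protein detected by Alexa488 anti-GST antibody at 488 nm.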
row,Sequence,gcPBM binding intensity (ln)
1,ATATGTAAAATATGGGGTACGAAGGTAGGTAGGTAA [XGTACX_site1392],9.24 ± 0.49
2,AAAAAAAAAAAAAAAAGTACATATGCTCAAGAGATG [XGTACX_site3783],8.77 ± 0.23
3,TTTTTTTTTTAATTAACACACATAAATATAAATATA [CACACA_site7527],8.16 ± 0.33
4,TATATATATATATATACATGCATCATTGTTCACCTT [TGCATGCA_site177],10.1 ± 0.36
5,TAATATTGACTATATACACACATATAAATATAAATA [CACACA_site6414],8.4 ± 0.33
6,CATTCAAAGAAAAACAGTACGTGTAGCAAAAGGCCT [XGTACX_site266],8.89 ± 0.62
7,TAAATAATATAATTATGTACGTATTTCTTTATTTTA [XGTACX_site8410],8.34 ± 0.3
8,GCTGAAAATAAATGAAGTACACAAGTAATATATATA [XGTACX_site6205],8.96 ± 0.23
9,TAATAAATAAAATATGCACACAAATATAGGAAACAA [CACACA_site8820],9.03 ± 0.18
10,TAAAAGGTGTATATAATACACACGTGGGATTAGAAT [CACACA_site610],8.89 ± 0.42
11,ATATATATATATATATGTACATAATAATATATATTA [XGTACX_site111],10.1 ± 0.23
12,ATATGTTATATGTAATGTACTTTTGATGTATATATT [XGTACX_site8615],8.44 ± 0.41
13,AAAATATTATAAATTTGTACTTATAAATATTGTATA [XGTACX_site8165],8.18 ± 0.41
14,AAAATAAACAATGAACAATAAACAATGAACAATGAA [CACACA_negctrl_site1194],8.79 ± 0.45
15,AAAAAATATACATATACACACATATGTATATAGAAT [CACACA_site2170],8.38 ± 0.23
16,TATATAAAGCATTGTAGTACTACCAATATTTTTTTT [XGTACX_site3523],8.54 ± 0.2
17,ATATGTAAATAAATATGTACTCATTTATTATTTTAT [XGTACX_site8748],8.51 ± 0.3
18,CGTTATATATATAAAAGTACAAAAATTAAACATTCC [XGTACX_site4568],8.63 ± 0.4
19,ATATATACAAGTATTTTTTTTTCAAACATTATTTTT [CACACA_negctrl_site1808],8.35 ± 0.37
20,ATATTTTATGTGTTGGTGCACATCTTTATTTAAACT [GTGCAC_site9736],9.06 ± 0.2
21,ATATGTATATTTTTTTGTACGTATTTATGTGTGTGT [XGTACX_site2093],8.73 ± 0.43
22,ATATATATAATATAATGTACGTATAATAATATGAGA [XGTACX_site2282],8.76 ± 0.33

row,Sequence,gcPBM binding intensity (ln)
1,TTCAATAGTAAGTATACACACATATATATATATAAA [CACACA_site2687],8.8 ± 0.38
2,TAATTCGCAAAAGAAAGAAATTAAGAAAAAGAAAAA [XGTACX_negctrl_site614],8.32 ± 0.68
3,CAAGCTATGTATTCTACACACACATACACCCATATA [CACACA_site9133],8.9 ± 0.6
4,TTTCTTTTTTTTTTTTCATTGATCCATTTATGATTA [TGCATGCA_negctrl_site225],8.39 ± 0.57
5,TTATAGGTTCTATACATATATTTATATATGTACAGA [CACACA_negctrl_site60],8.02 ± 0.34
6,TTTTTAAAAATATACACACACAGATATTATAGATAT [CACACA_site6511],8.61 ± 0.57
7,TTAATATATTAAATCTTACACACTAAAAAATATGTA [CACACA_site307],8.1 ± 0.38
8,TAAAAAAAATAAACGTGTACATAAAAATGAATATGT [XGTACX_site119],8.92 ± 0.3
9,AGTATACATATATATACACACACACCGATATATATA [CACACA_site8357],8.75 ± 0.4
10,TATGCGTCTTGCCTTGCACACTTTTATGAAAAAAAA [CACACA_site5174],8.54 ± 0.22
11,AACGTTAAAAAAAAAATATATATAAGGAGAAAGCAC [XGTACX_negctrl_site338],9.14 ± 0.33
12,GAAAATATTATAGCACCACACACTTATTTTATATAT [CACACA_site2265],8.74 ± 0.27
13,TCGTACTTGTATTATGCACACATATAATTAAACATA [CACACA_site9089],8.65 ± 0.18
14,AATAATCAAATATTAAAAATTGTGCAAAAAAAAAAA [XGTACX_negctrl_site399],8.62 ± 0.38
15,AAAAAAAAAAATATATTATTTTACTTGTTTATTTTT [GTGCAC_negctrl_site435],8.16 ± 0.35
16,TATGAAAAAATATATACACACATAATAAAGGTATAT [CACACA_site3737],8.67 ± 0.45
17,TAATATTATATATAAACACACATACCCATGTAAATA [CACACA_site5170],8.71 ± 0.47
18,TTTGTTTTAAATATTATACACACGTAAAAGTATAAT [CACACA_site7954],8.5 ± 0.35
19,ATATATATATCAACAACACACGATTAACTAAAAAAA [CACACA_site302],9.12 ± 0.16
20,TTTTTTTAAACTGAAAGTACTTATTCCAAGAAAATA [XGTACX_site50],8.24 ± 0.38
21,ATAATGACTAAATTTAAACACACAAGGGGAGTTTAC [CACACA_site8209],8.33 ± 0.42
22,ATAAGATATGTATATACACACATTTATTTACATATA [CACACA_site3263],8.42 ± 0.59
